Reference: PubChem BioAssay AID1030 (National Center for Advancing Translational Sciences (NCATS), 2008)
Values joined by “and” are separate entries in the source; they are usually repeats but may differ in a detail not shown here. Equal entries are not always repeated. The campaign covered roughly 220,000 compounds. About 16,000 (7.3%) were called active. The shares of active, inactive and inconclusive entries below differ from those in the screen. Calls follow the shape of the dose curve; as a rule, active = well fitted inhibition curve with a large enough effect (not every such curve was filed as active); inconclusive = small, poorly fitted or top-dose-only effect, or another doubt; inactive = no such curve, though single readings can be large or run the other way. Where the call is inconclusive, the potency comes from a doubtful curve fit.

target: Aldehyde dehydrogenase 1A1 (Homo sapiens) (UniProt P00352); assay: qHTS Assay for Inhibitors of Aldehyde Dehydrogenase 1 (ALDH1A1); details: Purified ALDH1A1, NADH fluorescence, propionaldehyde substrate; series mostly up to 75.3 µM; activity, negative = inhibition: at the top concentration;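 as to activity, negative = inhibition: plate controls were no enzyme wells and a reference inhibitor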
Sequence of UniProt P00352 (P00352 whole entry, looked up): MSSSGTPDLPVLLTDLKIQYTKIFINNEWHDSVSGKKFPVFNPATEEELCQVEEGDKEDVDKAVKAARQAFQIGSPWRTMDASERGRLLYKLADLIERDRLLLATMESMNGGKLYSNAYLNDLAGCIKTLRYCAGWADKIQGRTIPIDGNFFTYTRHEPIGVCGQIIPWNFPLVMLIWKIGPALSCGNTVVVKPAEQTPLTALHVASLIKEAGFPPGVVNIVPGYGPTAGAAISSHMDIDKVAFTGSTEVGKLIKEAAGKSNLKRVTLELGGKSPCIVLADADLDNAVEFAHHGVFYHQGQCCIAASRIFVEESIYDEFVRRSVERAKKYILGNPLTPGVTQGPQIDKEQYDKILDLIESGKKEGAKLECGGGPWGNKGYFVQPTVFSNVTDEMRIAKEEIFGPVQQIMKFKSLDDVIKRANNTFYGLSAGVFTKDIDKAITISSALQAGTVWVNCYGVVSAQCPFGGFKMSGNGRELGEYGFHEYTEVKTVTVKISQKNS
Potency is read from the fitted curve at half-maximal effect; tags tell the direction and shape of the fitted curve.

Potency, inconclusive:
O=C(CN(CCc1ccccc1)S(=O)(=O)c1ccc(Br)cc1)N/N=C/c1ccccc1C(=O)O 44.7 µM [inhibitor, single point]
COc1ccc(OC)c(NC(=O)CSc2ncccc2C(=O)O)c1 39.8 µM [inhibitor, single point]
Cc1c(N=Cc2cc(Br)cc(Br)c2O)cccc1C(=O)O 28.2 µM [inhibitor, partial curve]
CN1CCC/C1=C/C=C1\SC(=S)NC1=O 39.8 µM [inhibitor, single point]
CC(C)(C)c1ccc(NC(=O)N2CCCN(c3c(Cl)cncc3Cl)CC2)cc1 20 µM [inhibitor, single point]
Cc1ccccc1NC(=O)CCC(=O)OCC(=O)c1ccc(-c2ccccc2)cc1 39.8 µM [inhibitor, single point]
Oc1ccc(C2CNCc3sccc32)cc1O (configuration not stated) 39.8 µM [inhibitor, single point]
CC(C)Cc1nc(S(=O)(=O)c2ccc(Cl)cc2)c(N2CCOCC2)o1 11.2 µM [inhibitor, partial curve]
Cc1cc(C(=O)OCC(=O)NCCC(C)C)c2ccccc2n1 39.8 µM [inhibitor, single point]
Cc1nc(N2CCN(Cc3nc4ccccc4[nH]3)CC2)c2oc3ccccc3c2n1 35.5 µM [inhibitor, single point]
COc1ccc(NC(=O)C(Sc2nnc3ccccn23)c2ccccc2)cc1Cl (configuration not stated) 39.8 µM [inhibitor, single point]
COC(=O)c1cc2occc2n1Cc1nc(-c2ccc(Cl)cc2)oc1C 20 µM [inhibitor, partial curve]
O=C(OC1CCOC1=O)c1cc(-c2cccs2)nc2ccccc12 (configuration not stated) 31.6 µM [inhibitor, partial curve]
CC(=O)c1ccc(-c2ccccc2OC(F)(F)F)o1 39.8 µM [inhibitor, single point]
Cc1ccc(-c2nn(-c3ccccc3)cc2C2CC(c3cccs3)=NN2C(=O)CCCC(=O)O)cc1 (configuration not stated) 28.2 µM [inhibitor, partial curve]
COc1cc(/C=C2\N=C(c3c(-c4ccccc4)noc3C)OC2=O)ccc1OC(C)=O 20 µM [inhibitor, partial curve]
CCc1ccc(NC(=O)c2ccccc2Br)cc1 39.8 µM [inhibitor, single point]
CSc1nsc(SCC(=O)N2CCCc3ccccc32)n1 28.2 µM [inhibitor, partial curve]
COc1ccc(NC(=O)CSc2nnc(-c3ccoc3C)n2CCc2ccccc2)cc1 25.1 µM [inhibitor, single point]
CN1C(=O)SC(Nc2ccc(F)cc2)C1=O (configuration not stated) 39.8 µM [inhibitor, single point]
Cn1c(C(=O)OC(C(=O)NC2CCCC2)c2cccnc2)cc2sccc21 (configuration not stated) 39.8 µM [inhibitor, single point]
Cc1cc(C)cc(-n2c(C)cc(C(=O)CSc3nnnn3C)c2C)c1 39.8 µM [inhibitor, single point]
Cc1occc1C(=O)Nc1ccc(S(=O)(=O)N2CCCC2)cc1 22.4 µM [inhibitor, single point]
CCN(CC)c1ccc([N+](=O)[O-])cc1/C=N/NC(=O)CC#N 22.4 µM [inhibitor, partial curve]
Cn1c(C(=O)NCCCN2CCCCCC2)cc2c(=O)n(C)c3ccccc3c21 35.5 µM [inhibitor, single point]
COc1ccc(/C=N/OCC(=O)N2CC3(C)CC2CC(C)(C)C3)cc1OC (configuration not stated) 39.8 µM [inhibitor, single point]
COc1cccc(OC)c1C(=O)N1CCN(Cc2ccccc2C)CC1 39.8 µM [inhibitor, single point]
c1ccc(-n2c(-c3ccco3)nnc2-c2ccco2)cc1 35.5 µM [inhibitor, single point]
Cc1c(/C=N/NC(=O)CNc2ccccc2)c2ccccn2c1C(=O)c1ccccc1 39.8 µM [inhibitor, single point]
Cc1[nH]c(=S)c(C#N)c(C)c1C(=O)Nc1ccccc1 39.8 µM [inhibitor, single point]
CCOC(=O)C1=C(C)NC2=C(C(=O)CC(C)(C)C2)C1c1cccc(C)n1 (configuration not stated) 28.2 µM [inhibitor, partial curve]
CC(C)C(c1nnnn1C(C)(C)C)N1CCN(Cc2cccnc2)CC1 (configuration not stated) 39.8 µM [inhibitor, single point]
CN(C)CCCNS(=O)(=O)c1ccc(N2CCC(c3ccc(Cl)cc3)=N2)cc1 12.6 µM [inhibitor, partial curve]
O=C1c2cccnc2C(=O)N1Cc1cccs1 25.1 µM [inhibitor, partial curve]
CC(=O)NC1C(=O)N=C(SCC(=O)NC(C)c2ccccc2)NC1=O (configuration not stated) 14.1 µM [inhibitor, partial curve]
CC(=O)NS(=O)(=O)c1ccc(NC(=O)c2ccc3c(c2)C(=O)N(CCC(C)C)C3=O)cc1 4.47 µM [inhibitor, full curve]
Cc1cc(C)cc(NC(=O)C(NCCN2CCOCC2)c2ccccc2)c1 (configuration not stated) 12.6 µM [inhibitor, single point]

Potency, active:
CC(C)(C)C1=CC=C(C(C)(C)C)C(=O)C1=O 1.58 µM
O=C(NCc1ccccc1)C1=C[C@@H](C2CCCCC2)C[C@@H](OCc2ccc(CO)cc2)O1 12.6 µM
CC(C)C(c1nnnn1Cc1ccc(F)cc1)N1CCN(c2ccc(O)cc2)CC1 (configuration not stated) 3.98 µM
Cc1nn(-c2ccccc2)c2c1C(=O)N(c1ccccc1)C(=O)C(C)(C)C2 12.6 µM
COc1ccc(CNc2cc(-c3ccoc3)ncn2)c(OC)c1 25.1 µM
COC(=O)c1cc(=O)n(Cc2cccs2)c(=NCc2cccs2)s1 0.316 µM
CCOCCCNC(=O)C(c1ccc(C)cc1)N(Cc1cccs1)C(=O)c1ccccc1O (configuration not stated) 15.8 µM
Clc1ccccc1CN1CCN(/N=C/C=C\c2ccco2)CC1 3.16 µM
COC(=O)C(NC(C)=O)(Nc1ccc(Br)cn1)C(F)(F)F (configuration not stated) 7.08 µM
Cn1cnnc1Sc1ccc(/C=C(\CC(=O)O)c2nc3ccccc3s2)cc1[N+](=O)[O-] 20 µM

Potency, inactive and 7.94 µM (active):
CCCCCCCCNC(C)C(O)c1ccc(SC(C)C)cc1 (configuration not stated)

activity, negative = inhibition, inactive:
N=C(N)SCCc1ccc(CCSC(=N)N)cc1 -5.1%
COc1ccc(-c2[nH]ncc2Oc2ccccc2OC)c(O)c1 -0.908%
Cc1ccc(C(=O)NCc2ccc(Cl)cc2)o1 -1.4%
CN(C)S(=O)(=O)N(CC(=O)Nc1ccc2ccccc2c1)c1ccccc1 -1.52%
O=c1[nH]c2cc([N+](=O)[O-])c(NCCO)c([N+](=O)[O-])c2[nH]1 -0.375%
COc1cc(C(=O)O/N=C2/C=C(C)C(=O)C=C2C)cc(OC)c1OC 5.9%
CCOC(=O)c1sc2ncnc(N3CCN(C(=O)OCC)CC3)c2c1C 0.505%
CN(Cc1ccccc1)S(=O)(=O)c1cccs1 -3.25%
O=C(Cc1ccc([N+](=O)[O-])cc1)NCc1ccncc1 2.73%
Cn1c(=O)c2ncn(CC(=O)Nc3nc(-c4ccc(Cl)cc4)cs3)c2n(C)c1=O -15%
O=C(c1ccco1)n1nc(NCc2ccccc2)nc1NCc1ccccc1 9.62%
O=C(CSc1ncc(-c2ccccc2)[nH]1)Nc1cccc(O)c1 -9.82%
C=CCc1cccc(/C=N/NC(=O)CNc2ccccc2OC)c1O -8.44%
O=C1NC(=O)C(=C2CCCCCC2)S1 3.71%
CCOc1cc(/C=N/NC(=O)COc2ccc(C)cc2)ccc1OC(=O)c1cccs1 -5.52%
COc1cccc(CN2CCN(S(=O)(=O)c3ccc(Br)cc3)CC2)c1 0.0411%
O=C(Nc1cccnc1)c1ccc(Cl)cc1[N+](=O)[O-] 3.9%
CC(C)c1nc2c(c(=O)c3ccccc3n2C)c(=O)n1CCc1ccccc1 -1.04%
COc1ccc(CC(=O)NNC(=O)Cc2ccc(OC)cc2)cc1 -9.4%
Cc1cc(N2CCCC2=O)ccc1S(=O)(=O)NCCOc1ccccc1 -15.3%
COCCNC(=S)N1CCC(NC(=O)C23CC4CC(CC(C4)C2)C3)CC1 3.85%
Cc1onc(-c2c(F)cccc2Cl)c1C(=O)N1CCN(S(C)(=O)=O)CC1 -6.75%
O=C(O)CC[C@]1(C(=O)O)CCC(=O)c2ccccc21 0.108% [at 13.5 µM]
COc1cc2c(cc1OC)[C@@H]1C(=O)c3ccc4c(c3O[C@@H]1CO2)C=CC(C)(C)O4 -3.4%
COc1ccccc1C(=O)C1CCCN(C(=O)CN2CCCCC2=O)C1 (configuration not stated) -6.52%
CCCCCN=c1ccn(Cc2ccccc2)c2ccccc12 -7.56%
O=C(COc1ccc(Cl)cc1)Nc1ccc(C(=O)NCc2cccnc2)cc1 -7.4%
Cc1ccc(C)c(CN2C(=O)c3ccccc3S(=O)c3ccc(C(=O)N4CCN(c5ccccn5)CC4)cc32)c1 (configuration not stated) 10.2%
CCC(=O)Nc1cccc(-c2cc3ccccc3oc2=O)c1 -1.07%
